{
  "source": "the supplement of paper PMC11417369",
  "note": "This is one part of the list.",
  "data": [
    {"tested_on": "PfHDP1 homeodomain (GST-tagged)", "test": "gcPBM binding intensity (ln(normalized median fluorescence intensity)); higher = stronger DNA binding", "outline": "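Binding of GST-tagged P. falciparum DNA-binding domains, expressed in E. coli and used at about 25 μg on average, was carried out for 1 h in 1× PBS containing 1% milk, 0.2 mg/ml BSA, 0.5% salmon testes DNA and 0.03% Triton X-100. The target was an Agilent 4 × 180k array of primer-extended double-stranded 36-bp intergenic genomic probes plus negative controls, read with Alexa488 anti-GST antibody at 488 nm. Binding intensity is the highest Masliner-normalised natural-log median intensity across replicate spots of either probe orientation.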", "values": [
      {"sequence": "CGCATAAAGACAAGAACACACATATATATTGTAGTA [CACACA_site5938]", "gcPBM binding intensity (ln)": 6.32},
      {"sequence": "TTTTTGTTACCTATTGTGCACTTCATATAAATTAAA", "gcPBM binding intensity (ln)": 10.9},
      {"sequence": "TATTAAAAGGTTAAAGCATGCATACATATATATGTT [TGCATGCA_site865]", "gcPBM binding intensity (ln)": 6.9},
      {"sequence": "AATAATAAATAAAAATGTACACATACATTTCTATCC [XGTACX_site7057]", "gcPBM binding intensity (ln)": 6.19},
      {"sequence": "TATAAATTTTTATTTACATGCAGTTATTATTTCCAT [TGCATGCA_site41]", "gcPBM binding intensity (ln)": 6.33},
      {"sequence": "ATATATATATATATATGTACATATTTATATTGTAAA [XGTACX_site8878]", "gcPBM binding intensity (ln)": 9.35},
      {"sequence": "TAATGTAATACATATTGTACACATACATATATATTT [XGTACX_site7531]", "gcPBM binding intensity (ln)": 6.61},
      {"sequence": "GGGTATACCAATATAACACACATATATCTATAATAT [CACACA_site6348]", "gcPBM binding intensity (ln)": 6.45},
      {"sequence": "ATATATAATCATCACACATGCAGCCCTGATGAAAAA [TGCATGCA_site687]", "gcPBM binding intensity (ln)": 6.64},
      {"sequence": "ATTTTTACATAGGAAGCATGCATATTTTAAAAATAA [TGCATGCA_site1046]", "gcPBM binding intensity (ln)": 6.49},
      {"sequence": "CTAACACTAATTTTTTGTACACAATATGTAAATAAA [XGTACX_site6424]", "gcPBM binding intensity (ln)": 6.63},
      {"sequence": "CATGTGTTCTATATTTATGTCTAACTTTTTAATTAA [CACACA_negctrl_site904]", "gcPBM binding intensity (ln)": 6.44},
      {"sequence": "TTATTTCTGAATATTTTTTTTTTTTCTTCTTTTTTA [CACACA_negctrl_site815]", "gcPBM binding intensity (ln)": 5.85},
      {"sequence": "TATATATATATATATTGTACGAACCTTTTTTTTTTT [XGTACX_site4169]", "gcPBM binding intensity (ln)": 9.17},
      {"sequence": "TGATACGTATTTATTTCACACACGTTAAAAAAATAA [CACACA_site3914]", "gcPBM binding intensity (ln)": 6.14},
      {"sequence": "TAATTTTTTAAATTTAAACACACATTTTGTATATGT [CACACA_site8479]", "gcPBM binding intensity (ln)": 6.69},
      {"sequence": "TATATATATATTTTTGGTACAGATATTTTCTTCTCT [XGTACX_site4432]", "gcPBM binding intensity (ln)": 8.32},
      {"sequence": "TTACAACCATAAAATGCATGTAAATGACAAAAAAAA [TGCATGCA_site944]", "gcPBM binding intensity (ln)": 6.35},
      {"sequence": "AATATATATATATATTGTACACACATTTATGCATAT [XGTACX_site6856]", "gcPBM binding intensity (ln)": 7.14},
      {"sequence": "TAAATACAGACATACACACATACACCCACATATATA [CACACA_site547]", "gcPBM binding intensity (ln)": 6.88},
      {"sequence": "ATTAAAATGGAGTATTAATATGATATATATATATAT [GTGCAC_negctrl_site509]", "gcPBM binding intensity (ln)": 8.99},
      {"sequence": "AGGAACATTTACGCCCCACACACCTACCAACAAAAA [CACACA_site3827]", "gcPBM binding intensity (ln)": 6.75},
      {"sequence": "TTTGGTAAGCGTGTCGCATGTAGAACAAGTCTACAT [TGCATGCA_site577]", "gcPBM binding intensity (ln)": 6.08},
      {"sequence": "AATAGGTGCCTTTTTTCACACACATGTCAACTAAAT [CACACA_site8846]", "gcPBM binding intensity (ln)": 6.6},
      {"sequence": "ATGAAATTATTATATAAACACACATTTATTTTATTT [CACACA_site8597]", "gcPBM binding intensity (ln)": 6.28}
    ]}
  ]
}
